Laboratory results: paper PMC12136788
The other results are listed elsewhere or left out.

B1: chr1:95367794:95367795:-_ENSG00000117519_ENST00000538964|hu_mus|FALSE|FALSE (ssRNA)
RNA: GGGAGUUCUACAGUCCGACGAUCGUUUGCUUCAAAUAUAUCAUGGGGCUUCAUACCGUAAGCCUGGAUAGCUUUAAUGAAGUUGCCGAUAUUCUCCAACUGGGGCCAAUUUAGUGAGGAUUCGUUGACUUUCUUCACAGAGCCCAACAGAGGAUUGAGCAUCA
B2: chr7:135612270:135612271:-_ENSG00000105887_ENST00000393085|hu_mus|hu_hu_hu_mus_False|1_78 (ssRNA)
RNA: GGGAGUUCUACAGUCCGACGAUCGUUUUUUUCUGAGAUGUUAAAUAGUACUUCAGUAACAAAACUUACUUAACCUUUUAUUAAUGCGUGUUGUACCAAAAGCAGACAUUUUAGCUUCAUUUAUUCAAAAAUAUUAAGAACAUUCAACAGAGGAUUGAGCAUCA
B3: 44997657_44997777_1630_CDS_ENSMUSG00000038518_ENSMUST00000173246|mouse|control|control (ssRNA)
RNA: GGGAGUUCUACAGUCCGACGAUCGUUGGGUUUGGUUUCCUUGACCAGUUCUCUCUUGGCUUUGGUGUAUGUGACAGUCCCCUUGGUCACUGUGGCAGUGUACUUCACAGUUUUGGAUGGUGAAGGUCUGACUUCUCGGAUCUUCAACAGAGGAUUGAGCAUCA
B4: 72865189_72865309_3846_CDS_ENSG00000009954_ENST00000339594|human|control|control (ssRNA)
RNA: GGGAGUUCUACAGUCCGACGAUCAACUUUGCACCUAGCAUUUUCUGCGGACAUAUCCCACUUGAUACAGGCAUCAAGCAUCCCAAGCAGCACGUGCAUCCUGGAGAAAGUCUGAGCUUCCCGGAUUGCUGUCUUCCAUUUCUCCAACAGAGGAUUGAGCAUCA
B5: chr3:41277855:41277856:+_ENSG00000168036_ENST00000349496|hu_hu|motif|central (ssRNA)
RNA: GGGAGUUCUACAGUCCGACGAUCUUCAAUAGCUUCUGCAGCUUCCUUGUCCUGAGCAAGUUCACAGAGGACCCCUGCAGCGGCUCUUUGGAUGUUUUCAAUGGGAGAAUAAAGCAGCUGCACAAACAAUGGAAUGGUAUUUAGCAACAGAGGAUUGAGCAUCA
B6: chr11:110355629:110355630:+_ENSMUSG00000020623_ENSMUST00000020949|mus_hu|FALSE|FALSE (ssRNA)
RNA: GGGAGUUCUACAGUCCGACGAUCGUGAAUGACAGACAGCUUACUAUGUAAAUGUUCUAAUGCUUUUACAAUAGAAACUGCUAUUUUCCCUAAGAUGUCCUCUGGAAUUGUCUGGCCUUUAUCAAUAACUUGUUUGUAGAAUUUCAACAGAGGAUUGAGCAUCA

Each binder was assayed against T1, UNK ZnF1-3 (human, UniProt Q9C0B0 31-174) (assay: nsRBNS (natural sequence RNA bind-n-seq); RBNS binding buffer (assumed for nsRBNS): 25 mM Tris pH 7.5, 150 mM KCl, 3 mM MgCl2, 0.01% Triton X-100, 500 ug/ml BSA, 20 U/ml SUPERase-In, 4 C; UNK is unkempt and MSI1 is Musashi-1; names of the RNAs are library labels; protein concentration not given here; high values mean tight binding).
T1 sequence: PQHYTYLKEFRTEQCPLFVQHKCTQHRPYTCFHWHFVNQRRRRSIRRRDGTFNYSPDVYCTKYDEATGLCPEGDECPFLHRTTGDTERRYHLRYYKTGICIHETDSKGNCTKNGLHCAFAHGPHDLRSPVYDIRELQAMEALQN

| Binder | binding signal [enrichment R] |
| --- | --- |
| B1 | 0.659 |
| B2 | 0.716 |
| B3 | 0.301 |
| B4 | 1.08 |
| B5 | 1.25 |
| B6 | 0.773 |
